Reference: PMC6919601, “Identification of Plasmodium dipeptidyl aminopeptidase allosteric inhibitors by high throughput screening” (PLoS ONE, 2019)
Among all 110,000 compounds or so, about 230 (0.21%) showed an effect of 50% or more. This is one part of the list.

Molecular target: DPAP1 (Plasmodium falciparum, UniProt Q8IIJ9)
Assay: primary screen, percent inhibition; read by cleavage of a fluorogenic dipeptide substrate; higher = more effect of the substance
Design: species or system P. falciparum D10 trophozoite lysates; single well
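Note: 30 min substrate incubation versus DMSO and 10 µM JCP410 controls.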

DPAP1, sequence (Q8IIJ9 whole entry, looked up): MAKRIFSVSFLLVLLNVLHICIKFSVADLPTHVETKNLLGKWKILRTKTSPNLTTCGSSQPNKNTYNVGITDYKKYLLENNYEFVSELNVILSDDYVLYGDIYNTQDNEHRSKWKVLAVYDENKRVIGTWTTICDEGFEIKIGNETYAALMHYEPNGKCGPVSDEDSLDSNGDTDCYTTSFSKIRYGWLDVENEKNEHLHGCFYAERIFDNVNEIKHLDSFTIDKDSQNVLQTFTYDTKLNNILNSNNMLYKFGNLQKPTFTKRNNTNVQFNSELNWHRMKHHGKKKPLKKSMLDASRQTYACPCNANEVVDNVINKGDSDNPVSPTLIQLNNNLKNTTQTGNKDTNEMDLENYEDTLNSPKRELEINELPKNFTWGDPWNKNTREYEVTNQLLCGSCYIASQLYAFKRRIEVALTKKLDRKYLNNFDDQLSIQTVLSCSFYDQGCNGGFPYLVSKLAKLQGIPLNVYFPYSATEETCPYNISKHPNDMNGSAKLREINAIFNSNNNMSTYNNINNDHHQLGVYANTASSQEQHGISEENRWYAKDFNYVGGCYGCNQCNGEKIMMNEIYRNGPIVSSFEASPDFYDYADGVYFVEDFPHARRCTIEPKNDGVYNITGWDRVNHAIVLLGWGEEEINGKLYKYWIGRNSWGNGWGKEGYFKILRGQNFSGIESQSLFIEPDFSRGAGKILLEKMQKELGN

SMILES | % Inhibition @ 10 uM [%]
COc1cccc(-c2nn(C)c(Cl)c2C=O)c1 | 1.91
CCc1ccc(C(C)NC(=O)c2cccs2)cc1 (stereo not shown) | -8.23
CCN(CC)CC(O)COc1ccc(C(C)(C)C)cc1 (stereo not shown) | 1.35
COc1cc(NC(=O)c2sc3nc4c(cc3c2N)CCCCC4)cc(OC)c1OC | 3.29
O=C(CSc1nc2c(c(=O)n1Cc1ccccc1)SCC2)NCc1ccc(F)cc1 | 6.3
Cc1cccc(N2CCN(C(=O)c3csc4ccccc34)CC2C)c1 (stereo not shown) | 1.68
COc1ccccc1NC(=O)c1sc(Cl)nc1-c1ccccc1 | 1.83
CCOc1ccc(CCNC(=O)Cn2nc(CC)n3c(cc4sccc43)c2=O)cc1OCC | 6.46
O=C(Cc1ccccc1)Nc1c(O)c2ccccc2oc1=O | -0.602
Cc1cccc(OCCCN2CCOCC2)c1C | -0.546
COC(=O)Nc1ccc(S(=O)(=O)N2CCC(C(=O)Nc3cccc(OC)c3)CC2)cc1 | 4.12
O=C(NCc1ccncc1)Nc1ccc(Cl)cc1 | -0.67
CC(C)N(C(=O)Cc1c(O)nc2ccccc2c1O)C(C)C | 4.99
COc1ccc(C2=NOC(C(=O)N3CCOCC3)C2)cc1 (stereo not shown) | 7.66
Clc1ccccc1-c1nnc(-c2ccccc2)o1 | -2.78
CCn1cc(Cl)c(C(=O)Nc2nc(-c3cc(OC)ccc3OC)cs2)n1 | 5.83
CC(C)CC(NC(=O)c1ccc(Br)c([N+](=O)[O-])c1)C(N)=O (stereo not shown) | -8.49
Cc1cc(C(=O)NC23CC4CC(CC(C4)C2)C3)c(C)o1 | 3.49
O=C(NCc1ccccc1)c1ccc(CS(=O)(=O)c2ccccc2)o1 | -3.09
CCOc1cc(C(=O)NCc2ccco2)cc(OCC)c1OCC | 1.63
O=S(=O)(c1cccc2nonc12)N1CCN(c2ccccc2)CC1 | -1.04
O=C(Cn1ncn2c(cc3ccccc32)c1=O)NCc1cccs1 | -3.47
CCOC(=O)c1c(OCC)[nH]c2ccc(O)cc12 | -5.62
Cc1nn(-c2cccc3ccccc23)c(O)c1/C=N/c1ccc(C(=O)O)c(O)c1 | 0.673
CC(C)(C)C1CCc2c(sc(NC(=O)c3cc(-c4ccco4)on3)c2C#N)C1 (stereo not shown) | -0.591
COC(=O)c1ccc(/C=C2/SC(=O)NC2=O)cc1 | 4.54

SMILES | % Inhibition @ 10 uM [%]
Oc1ccc2ccccc2c1CNc1nc(-c2ccccc2)cs1 | -4.74
Cc1ccc(F)c(NC(=O)Nc2cccc3ccccc23)c1 | -7.87
CCCc1[nH]nc2c1C(c1cc3c(cc1Br)OCO3)C(C#N)=C(N)O2 (stereo not shown) | 4.07
O=C(Cn1nnc2ccccc21)Nc1ccc(Br)cc1 | 3.31
C/C(Cl)=C/Cn1c(SCc2cccc(Br)c2)nc2c1c(=O)[nH]c(=O)n2C | 4.11
FC(F)(F)c1cccc(N2CCN(Cc3csc(-c4ccccc4)n3)CC2)c1 | 2.23
COc1ccc2cc3c(N)nn(C(=O)/C=C/c4ccccc4OC(C)C)c3nc2c1 | 13.7
O=c1/c(=C/c2ccc3c(c2)OCO3)sc2nc3ccccc3n12 | -1.75
CC1(C)CC(=O)c2cc3c(N)c(C(=O)NCc4ccco4)sc3nc2C1 | -2.14
CC1(C)Cc2ccccc2C(Nc2nc(-c3ccccc3)cs2)=N1 | 2.47
Cc1nn(-c2ccccc2)c2sc(C(=O)n3cccn3)cc12 | 3.98
Fc1ccccc1COc1ccc(Br)cc1CNCc1cccnc1 | 0.755
COc1ccc(C2SCC(=O)Nc3c2c(C)nn3C2CCOC(C)(C)C2)cc1OC (stereo not shown) | 6.01
COC(=O)C(Cc1c[nH]c2ccccc12)NC(=O)c1c(C)cc(C)cc1C (stereo not shown) | -5.51
Cc1ccccc1NC(=O)c1cc(S(=O)(=O)N2CCCCCC2)ccc1Cl | 14.3
CCCOc1ccc(N2C(=O)CC(SCC(=O)Nc3ccc(F)cc3)C2=O)cc1 (stereo not shown) | -5.13
COc1ccc(C2/C(=C(\O)OC(C)C)C(C)=Nc3ncnn32)c(OC)c1 (stereo not shown) | 3.87
CC1CCCCN1CCCNC(=O)CN1N=C(c2ccccc2)CCC1=O (stereo not shown) | 6.67
CCCCCNC(=O)c1ccc(OCC)cc1 | 11.2
COc1ccc(-c2nnc3n(CC(C)C)c(=O)c4ccccc4n23)cc1 | 1.68
Cc1ccccc1-c1nnn(CC(=O)O)n1 | -1.72
COc1cc(CNC(=O)c2nc(-c3ccc(-n4cccc4)cc3)no2)cc(OC)c1 | 1.84
Cc1nn(C)cc1C(=O)Nc1c(C)nn(Cc2ccc(Cl)cc2Cl)c1C | 2.09
Cc1cc(N)cc(C)c1-n1nc2ccccc2n1 | -16.5
CC1CCc2c(sc(NC(=O)c3ccc(Br)o3)c2C#N)C1 (stereo not shown) | -6.51
Cc1c2cnn(CC(=O)NC3CCCCCC3)c(=O)c2c(C)n1Cc1ccc(Cl)cc1 | 1.02

SMILES | % Inhibition @ 10 uM [%]
CO/C(O)=C1/C(C)=NC2=C(C(=O)CCC2)C1c1ccc(Cl)cc1 (stereo not shown) | -3.14
CCCN(CCC)C(=O)c1sc2nc(-c3ccccc3)cn2c1C | 3.19
Cc1ccsc1CCNS(=O)(=O)c1ccc(-c2cc(C(F)(F)F)no2)s1 | 5.98
COc1cc(CN2CCN(C3CCC(c4ccccc4)CC3)CC2)cc(OC)c1OC (stereo not shown) | 0.611
Cc1ccc(C(=O)Nc2ccccc2Cl)cc1 | 1.35
Cc1cccc(NC(=O)c2cccc(S(=O)(=O)N3CCOCC3)c2)c1 | 1.64
O=C(O)c1ccccc1C(=O)N(c1ccccc1)c1ccccc1 | -1.43
Cc1ccc(S(=O)(=O)C2CS(=O)(=O)CC2O)cc1 (stereo not shown) | -2.66
CCn1c(SCC(=O)Nc2ccc(OC)cc2)nc2ccccc2c1=O | 1.96
CCOC(=O)C1=C(CN(C)C2CCCCC2)NC(=O)NC1c1cccs1 (stereo not shown) | 2.9
CCOc1ccc(C(=O)Nc2nc3c(s2)C(=O)CC(C)(C)C3)cc1OCC | 6.97
O=C(Nc1ccc2[nH]c(-c3ccco3)nc2c1)c1cccs1 | 0.843
COc1ccc(C(=O)Nc2ccccc2F)c(OC)c1 | -0.088
COc1cccc(C(=O)N[C@@H](CC(C)C)C(=O)NCC#N)c1 | -3.97
O=C(CSc1ccc2nnc(-c3ccc(F)cc3)n2n1)c1ccccc1 | 7.87
O=C(CSc1nc2ccccc2nc1N1CCCC1)N1CCN(C2CCCCC2)CC1 | -5.64
Cc1cc(O)c(C(=O)/C=C/c2ccc([N+](=O)[O-])cc2)c(=O)o1 | 1.29
CCCCN(C)C1CCN(CCc2ccccc2)CC1 | 4.54
CCOc1ccccc1N1CCN(Cc2ccc(CC)cc2)CC1 | -0.127
COc1cccc(CNc2nc3ccc(Cl)cc3n3nnnc23)c1 | 0.454
Cc1cc(C)n2nc(S(=O)(=O)Nc3c(Cl)cccc3Cl)nc2n1 | -7.76
Cc1ccc(/C(=N\C(=S)Nc2ccc([N+](=O)[O-])cc2)NCS(=O)(=O)c2ccccc2)cc1 | -5.28
COc1ccc2c(c1)CCc1sc(NC(=O)c3ccc(OC)c(OC)c3)nc1-2 | 4.03
Cc1cccc(CNC(=O)C2=Cc3sc(C)c(C)c3CS2)c1 | 4.17
Clc1ccc(OCc2nc3ccccc3[nH]2)cc1 | 0.219
Cc1ccc(C)c(-c2csc(Nc3ccc(F)cc3)n2)c1 | -2

SMILES | % Inhibition @ 10 uM [%]
COCc1cc(C)nc2sc(C(=O)OC)c(NC(=O)c3ccco3)c12 | -5.06
COc1ccc(C2=NN(CC(=O)N3CCCCC3)C(=O)CC2)cc1 | -5.43
CCc1cccc2c(C#N)cn(CC(=O)N(CC)CC)c12 | -1.84
Cc1csc(NC(=O)c2cc3ccc4cccnc4c3[nH]2)n1 | 13.4
COc1ccc(CNC(=O)c2ccc(-n3cnc4cccnc43)cc2)cc1 | 1.63
Cc1ccc(OCCCN2CCOCC2)c(C)c1 | 3
Cc1ccc(NC(=O)COc2ccc(Cl)cc2)cc1F | 0.605
COc1ccccc1OCCCCN1CCCC1 | -6.82
CCOC(=O)c1[nH]c2ccccc2c1NC(=O)c1c(OCC)ccc2ccccc12 | 5.4
Cc1cc(C)c(OCCN2CCCCC2)c(Cl)c1 | -2.97
O=C(NC1CC1)c1cc(-c2ccccn2)nc2ccc(S(=O)(=O)N3CCOCC3)cc12 | -4.97
COc1ccc(C(=O)NC2CCSC2=O)cc1 (stereo not shown) | 2.46
COc1ccc(N2CCN(C(=O)CN(c3ccc(C)c(C)c3)S(=O)(=O)c3ccccc3)CC2)cc1 | -10.2
Cc1nc2c(-c3ccccc3)c(C)nn2c(C)c1CC(=O)NC(C)CCc1ccco1 (stereo not shown) | 5.47
CCc1cc2c(=O)c(-c3nc4ccccc4s3)c(C)oc2cc1O | 3.8
COc1ccc(S(=O)(=O)NC2CCCCC2)cc1-c1nnc2c3ccccc3c(C)nn12 | -6.71
CC(C)CCn1c(SCC(=O)c2ccc(O)c(O)c2)nc2ccsc2c1=O | 16
CCc1ccc(-c2[nH]nc3nc(-c4ccc(OC)cc4OC)cc(C(=O)O)c23)cc1 | 5.37
CCOc1ccc(C(O)(CC)C(CN2CCCCC2)c2ccccc2)cc1 (stereo not shown) | 7.28
Cn1c(=O)c2c(nc(C(N)=O)n2C)n(C)c1=O | -6.69
CN1CCN(C(=O)c2ccc(Cl)cc2)CC1 | -3.65
O=C(c1cc2ccc3cccnc3c2[nH]1)N1CCN(Cc2ccccc2)CC1 | 4.44
CCc1c(C)nc2cc(-c3ccc(OC)cc3)nn2c1O | -3.74
Clc1ccccc1OCCCCN1CCCC1 | 1.35
O=C(NCCc1ccccc1)c1cc(-c2ccc3c(c2)OCO3)on1 | -8.56
